Results as given in article PMC12713088.
Results are given in words; binding and its absence hold for the method and conditions named. Some entries that bind do so weakly or less than the wild type. Sequences can lack the tags named with a protein.

Columns and labels:
Test in all cases: two-hybrid; pGADT7 and pGBKT7 fusions, strains AH109 and Y187 mated; growth on SD-LWH with 0 or 3 mM 3-AT
[1] = target: T1, INCURVATA 11 (ICU11), yeast two-hybrid fusion (Arabidopsis thaliana) (UniProt Q3ED68)
T1 sequence: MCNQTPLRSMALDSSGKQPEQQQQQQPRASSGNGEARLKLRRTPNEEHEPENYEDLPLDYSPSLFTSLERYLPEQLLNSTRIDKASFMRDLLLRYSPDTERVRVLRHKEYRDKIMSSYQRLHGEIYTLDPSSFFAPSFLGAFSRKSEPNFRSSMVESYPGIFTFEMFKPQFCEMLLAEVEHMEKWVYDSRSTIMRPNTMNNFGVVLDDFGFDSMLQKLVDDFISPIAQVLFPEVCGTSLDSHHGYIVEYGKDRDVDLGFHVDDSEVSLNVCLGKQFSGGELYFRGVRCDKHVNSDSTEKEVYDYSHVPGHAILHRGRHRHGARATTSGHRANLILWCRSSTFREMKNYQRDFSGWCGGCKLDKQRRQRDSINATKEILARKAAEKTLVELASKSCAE

[2] = target: T2, NAC050, yeast two-hybrid fusion (Arabidopsis thaliana), Q9SQX9; details: remark: other sources report otherwise
T2 chain: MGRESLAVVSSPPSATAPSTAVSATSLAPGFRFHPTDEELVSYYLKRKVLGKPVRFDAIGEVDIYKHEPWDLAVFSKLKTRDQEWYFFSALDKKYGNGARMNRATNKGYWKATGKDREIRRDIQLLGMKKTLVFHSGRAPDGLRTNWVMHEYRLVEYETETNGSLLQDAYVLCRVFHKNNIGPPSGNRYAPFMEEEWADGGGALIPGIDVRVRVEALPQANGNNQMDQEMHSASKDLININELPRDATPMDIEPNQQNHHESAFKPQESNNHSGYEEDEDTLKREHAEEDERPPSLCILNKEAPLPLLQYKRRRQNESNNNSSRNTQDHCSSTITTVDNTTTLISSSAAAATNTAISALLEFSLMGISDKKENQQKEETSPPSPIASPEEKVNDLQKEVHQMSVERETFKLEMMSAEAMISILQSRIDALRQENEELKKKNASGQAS

[3] = target: T3, NAC052, yeast two-hybrid fusion (Arabidopsis thaliana), Q9SQY0; details: remark: other sources report otherwise
T3 chain: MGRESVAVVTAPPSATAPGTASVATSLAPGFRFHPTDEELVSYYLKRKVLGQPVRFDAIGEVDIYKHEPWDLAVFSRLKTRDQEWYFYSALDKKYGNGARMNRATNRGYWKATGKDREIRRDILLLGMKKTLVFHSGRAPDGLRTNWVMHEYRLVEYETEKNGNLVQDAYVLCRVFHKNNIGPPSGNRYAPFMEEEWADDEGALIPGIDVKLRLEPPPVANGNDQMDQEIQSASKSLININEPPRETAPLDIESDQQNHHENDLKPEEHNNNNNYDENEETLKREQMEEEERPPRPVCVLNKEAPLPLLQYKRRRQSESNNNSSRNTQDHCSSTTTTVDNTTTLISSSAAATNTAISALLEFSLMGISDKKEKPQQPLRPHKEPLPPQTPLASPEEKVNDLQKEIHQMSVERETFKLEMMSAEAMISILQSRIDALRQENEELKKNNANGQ

B1: TRB1, yeast two-hybrid fusion (protein, UniProt Q8VWK4 1-300)
chain: MGAPKQKWTQEEESALKSGVIKHGPGKWRTILKDPEFSGVLYLRSNVDLKDKWRNMSVMANGWGSREKSRLAVKRTFSLPKQEENSLALTNSLQSDEENVDATSGLQVSSNPPPRRPNVRLDSLIMEAIATLKEPGGCNKTTIGAYIEDQYHAPPDFKRLLSTKLKYLTSCGKLVKVKRKYRIPNSTPLSSHRRKGLGVFGGKQRTSSLPSPKTDIDEVNFQTRSQIDTEIARMKSMNVHEAAAVAAQAVAEAEAAMAEAEEAAKEAEAAEAEAEAAQAFAEEASKTLKGRNICKMMIRA
- binding [1]: binds

B2: TRB2, yeast two-hybrid fusion (protein, UniProt Q9FJW5 1-299)
chain: MGAPKQKWTPEEEAALKAGVLKHGTGKWRTILSDTEFSLILKSRSNVDLKDKWRNISVTALWGSRKKAKLALKRTPPGTKQDDNNTALTIVALTNDDERAKPTSPGGSGGGSPRTCASKRSITSLDKIIFEAITNLRELRGSDRTSIFLYIEENFKTPPNMKRHVAVRLKHLSSNGTLVKIKHKYRFSSNFIPAGARQKAPQLFLEGNNKKDPTKPEENGANSLTKFRVDGELYMIKGMTAQEAAEAAARAVAEAEFAITEAEQAAKEAERAEAEAEAAQIFAKAAMKALKFRIRNHPW
- binding [1]: binds

B3: TRB3, yeast two-hybrid fusion (protein, UniProt Q9M2X3 1-295)
chain: MGAPKLKWTPEEETALKAGVLKHGTGKWRTILSDPVYSTILKSRSNVDLKDKWRNISVTALWGSRKKAKLALKRTPLSGSRQDDNATAITIVSLANGDVGGQQIDAPSPPAGSCEPPRPSTSVDKIILEAITSLKRPFGPDGKSILMYIEENFKMQPDMKRLVTSRLKYLTNVGTLVKKKHKYRISQNYMAEGEGQRSPQLLLEGNKENTPKPEENGVKNLTKSQVGGEVMIMGMTEKEAAAAAARAVAEAEFAMAEAEEAAREADKAEAEAEAAHIFAKAAMKAVKYRMHSQTR
- binding [1]: binds

B4: TRB3, yeast two-hybrid fusion, Q9M2X3 1-295 (protein)
chain: MGAPKLKWTPEEETALKAGVLKHGTGKWRTILSDPVYSTILKSRSNVDLKDKWRNISVTALWGSRKKAKLALKRTPLSGSRQDDNATAITIVSLANGDVGGQQIDAPSPPAGSCEPPRPSTSVDKIILEAITSLKRPFGPDGKSILMYIEENFKMQPDMKRLVTSRLKYLTNVGTLVKKKHKYRISQNYMAEGEGQRSPQLLLEGNKENTPKPEENGVKNLTKSQVGGEVMIMGMTEKEAAAAAARAVAEAEFAMAEAEEAAREADKAEAEAEAAHIFAKAAMKAVKYRMHSQTR
- binding [2]: no binding
- binding [3]: no binding

B5: TRB1, yeast two-hybrid fusion, Q8VWK4 1-300 (protein)
chain: MGAPKQKWTQEEESALKSGVIKHGPGKWRTILKDPEFSGVLYLRSNVDLKDKWRNMSVMANGWGSREKSRLAVKRTFSLPKQEENSLALTNSLQSDEENVDATSGLQVSSNPPPRRPNVRLDSLIMEAIATLKEPGGCNKTTIGAYIEDQYHAPPDFKRLLSTKLKYLTSCGKLVKVKRKYRIPNSTPLSSHRRKGLGVFGGKQRTSSLPSPKTDIDEVNFQTRSQIDTEIARMKSMNVHEAAAVAAQAVAEAEAAMAEAEEAAKEAEAAEAEAEAAQAFAEEASKTLKGRNICKMMIRA
- binding [3]: no binding

B6: TRB2, yeast two-hybrid fusion, Q9FJW5 1-299 (protein)
chain: MGAPKQKWTPEEEAALKAGVLKHGTGKWRTILSDTEFSLILKSRSNVDLKDKWRNISVTALWGSRKKAKLALKRTPPGTKQDDNNTALTIVALTNDDERAKPTSPGGSGGGSPRTCASKRSITSLDKIIFEAITNLRELRGSDRTSIFLYIEENFKTPPNMKRHVAVRLKHLSSNGTLVKIKHKYRFSSNFIPAGARQKAPQLFLEGNNKKDPTKPEENGANSLTKFRVDGELYMIKGMTAQEAAEAAARAVAEAEFAITEAEQAAKEAERAEAEAEAAQIFAKAAMKALKFRIRNHPW
- binding [2]: no binding
- binding [3]: no binding
